# Measured values: the supplement of paper PMC11417369
# ± gives the standard deviation of the averaged measurements. The list shows a part of the results.
# Tested on: PfAP2-EXP AP2 domain (GST-tagged)
# Assay: gcPBM binding intensity (ln(normalized median fluorescence intensity)); higher = stronger DNA binding
# Method in brief: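 Probes on an Agilent 4 × 180k array were primer-extended, double-stranded and 36 bp long, taken from intergenic genomic regions, with negative controls added. GST-tagged P. falciparum DNA-binding domains from E. coli, about 25 μg on average, were applied to the array for 1 h in 1× PBS containing 1% milk, 0.2 mg/ml BSA, 0.5% salmon testes DNA and 0.03% Triton X-100. Binding intensity, obtained after Alexa488 anti-GST antibody detection and a 488 nm scan, is the highest Masliner-normalised natural-log median intensity across replicate spots of either probe orientation.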
row,Sequence,gcPBM binding intensity (ln)
1,ACATATATATTCATATGTACATATACATACATACAT [XGTACX_site4563],9.23 ± 0.27
2,TGTTTTATTTTATTAGTGCATTTTTATTTATAATAG [GTGCAC_site9453],8.82 ± 0.26
3,AAGGTAGAAATATGTTGTACGGTTTGGAGGAAGCAA [XGTACX_site1105],8.95 ± 0.38
4,GCATCGATCAAACATACACACATGGTTAATAAAAAT [CACACA_site8651],8.62 ± 0.59
5,GTTAAAATTGGGGACGCATGTTCCTTTCCTTTTTTT [TGCATGCA_site1002],8.55 ± 0.31
6,AATATATGTATATATTTTTTTTTTTCCCTTACAAAT [GTGCAC_negctrl_site428],8.12 ± 0.55
7,TTATAAATGTAACGATGTACTTTTAAAAGTTTCCTT [XGTACX_site109],8.36 ± 0.38
8,GGAATGGTACATGATACACACACGCACATATATATA [CACACA_site5825],8.85 ± 0.47
9,TATATTAAACAATATACACACATTAATGTATACATA [CACACA_site2755],8.47 ± 0.42
10,AAAAAAAAAAAAAAAACACACAGAACAATATATAAA [CACACA_site4698],8.73 ± 0.38
11,TTTTTTATAAAATTTTTTTTTTAAAATATTAAAACT [XGTACX_negctrl_site240],7.89 ± 0.47
12,AAGCTATATATAGGCAGTACTTTGTAAGTGTAGATA [XGTACX_site8365],8.83 ± 0.37
13,ATATGTCACTTGTATACACACATATAGATTTCAATC [CACACA_site7519],9.19 ± 0.66
14,TTTCTAATTCTTAGTGGTACACAGTTCTGCTGATAT [XGTACX_site2391],8.34 ± 0.42
15,TATATGCATATACATACACACATAACACATACGTTT [CACACA_site3832],8.71 ± 0.43
16,TATTTGTTGTGAGTCACACATATATATATATATATA [CACACA_site4240],10.3 ± 0.42
17,TTTTCATAAAATCATTGTACATTTATCGTATATTAA [XGTACX_site3855],8.46 ± 0.4
18,ATATTGTAAGTAAACACACACACATATATATGTATA [CACACA_site8124],8.61 ± 0.49
19,AAAATATCTTATATATGTACATATTTATATTTATAT [XGTACX_site6027],8.46 ± 0.35
20,TTGTTTTTTTTTGGCTGTACGTTCATAAATTTTTTT [XGTACX_site4165],8.79 ± 0.52
21,TAATTACACTTTAAAAGTACATATATAATAACATTA [XGTACX_site379],8.38 ± 0.26
22,AAAATAAGCCATATACGTACATACATATATAAATAT [XGTACX_site4197],8.57 ± 0.33

row,Sequence,gcPBM binding intensity (ln)
1,CAAACAATTAAACAAACACACATATACATGTATATA [CACACA_site2060],8.4 ± 0.66
2,TTCATATTTCATATATGTACTTATGTTCAATATAGT [XGTACX_site3811],8.31 ± 0.3
3,TTTTTTATGTTCAATTGTACATATACATATATATAT [XGTACX_site6013],9.36 ± 0.11
4,GATTTAATAGATACGAGTACAGAAATTGTATACATA [XGTACX_site7563],8.7 ± 0.39
5,TACATATTTTTCTTTTCACACATGGAAAAAAAAGGT [CACACA_site5146],8.71 ± 0.23
6,AATATATTTATTATAACACACACATATATATATTAT [CACACA_site8264],8.54 ± 0.39
7,CCCTTAATTTAAAACACACAAACAAATAAGTTAGTT [CACACA_site3793],8.69 ± 0.5
8,TATTTTTTTTTTCACTGTACATACAACAACAAATAT [XGTACX_site8835],8.75 ± 0.55
9,TATTAATTCATTTTTTTTTTTTTTTTTTTTTTTTTT [CACACA_negctrl_site1215],8.84 ± 0.16
10,ATATATATATATATATATATATATATATATAAGTGG [XGTACX_negctrl_site90],9.94 ± 0.35
11,TTATATGTTTTGTGTACACAATTTATTAAATTAATA [CACACA_site5645],8.96 ± 0.38
12,ATAGGAAAAAGTATTGGTACACATACATATACGTTA [XGTACX_site5819],8.77 ± 0.21
13,ACACAAAAAATTAAGTGTACTCATCAAGAAAAAAAA [XGTACX_site3456],8.31 ± 0.55
14,TATATATTTTTTTCATGTACATATAAATTAATTAAA [XGTACX_site8680],8.72 ± 0.36
15,ATAAAATACCCTGATCTATTACATATTATATTCTGC [GTGCAC_negctrl_site311],8.28 ± 0.49
16,GATTCCTTTAACCCTGCACACATACATACATTTATA [CACACA_site9308],9.3 ± 0.4
17,TAATAATATAATAATACACACTCATTATATATATAA [CACACA_site6045],8.18 ± 0.43
18,TATATTTCTTATTACATACACACATATACATATATG [CACACA_site3202],8.71 ± 0.58
19,ATAGATGCATATTATACACACATATGTAAATACATT [CACACA_site4691],8.54 ± 0.3
20,CCACTATATAAAATCACACATTTATATTATACATAT [CACACA_site4570],8.43 ± 0.4
21,AAAAAAAGAAATTAGGTGCATAGCATTAACCGATAA [GTGCAC_site9582],8.88 ± 0.13
22,TTGAAGTTAATAAAAACTTTATACATGAAATTATTT [CACACA_negctrl_site684],8.08 ± 0.42

row,Sequence,gcPBM binding intensity (ln)
1,ATAATAGTTAAATGTACACACTAACTACATGGAATA [CACACA_site5753],8.6 ± 0.33
2,TATTGGTAATGTAAATGTACATATAGATATTTACAT [XGTACX_site1922],8.36 ± 0.46
3,TTTATTTTAATTTATTGTACATTGTTATCAAGTGCA [XGTACX_site1110],8.68 ± 0.64
4,ACAAAATATTTTTCTTCACACATCCATTCAACATTT [CACACA_site5886],8.96 ± 0.33
5,ACAAAAAAAAAAAAAATACACACACATAAAAAAAAA [TGCATGCA_negctrl_site333],8.4 ± 0.54
6,AATCAAAACATTAAAAAGAAAAAATATATATATATA [CACACA_negctrl_site366],10.2 ± 0.26
7,TATATATATATATATATTAATAATTAATATAAAAGA [XGTACX_negctrl_site32],9.23 ± 1.2
8,TATAAATGATTAATTTGTACATATTTTACTTAATTG [XGTACX_site5271],8.18 ± 0.37
9,CCATTCAAATTTCGCACACACATACAAAAAAAAAAA [CACACA_site3093],8.59 ± 0.42
10,TTGATGATATCATTTTGTACTTATACGTATTTAAAA [XGTACX_site148],8.73 ± 0.5
11,TAAATAAATAAATATATATATATATATATATATATA [XGTACX_negctrl_site70],10.2 ± 0.41
12,CTTTAAATGATGTAAACACACACATATACATTATTA [CACACA_site9035],8.35 ± 0.28
13,CACATAAAAAAATAAACACACATATGTATATAAATA [CACACA_site7483],8.68 ± 0.45
14,AATGGAAAAATAGGCACACACACATAAATACAGATA [CACACA_site4844],9.03 ± 0.64
15,TAAAAAAAAATAAAAAGTACATATATATATATATAT [XGTACX_site1155],10.3 ± 0.46
16,AGTGCTACTCATGATTGAATAGAGGAAAAGGCGGTG [GTGCAC_negctrl_site49],8.49 ± 0.19
17,AATATGAAACAAGACGCACACATAAATAAATAAATA [CACACA_site326],8.84 ± 0.49
18,CTAAAAAAATAATAAAGTACACAAACGAATATATAA [XGTACX_site668],8.99 ± 0.38
19,ACATATGGCACATATGTACACACGTATAGATAATAT [CACACA_site2024],8.95 ± 0.23
20,TTGAAAAATCAGCACACACACAAATACATACATATT [CACACA_site7505],8.59 ± 0.54
21,CTTTTTTGGTACATCACACATTTTTACATTCCCTTT [CACACA_site4957],9 ± 0.28
22,TTTTTTTTTTTTTTTGCACACTATATTTAATATAAG [CACACA_site2444],8.4 ± 0.33

row,Sequence,gcPBM binding intensity (ln)
1,TTAATAGTGGAAATATGTACATAATTTTGGTCTTTT [XGTACX_site1664],8.78 ± 0.3
2,CTGTTCAAAATATGAACACACACATATATATATATA [CACACA_site8638],10.1 ± 0.46
3,CCATATTTAATAAAATGTACTCATTCTTTTATTTTA [XGTACX_site7802],8.48 ± 0.34
4,TATTGGATCACACAAAAATGTATAAATAAATAGAAA [TGCATGCA_negctrl_site490],8.61 ± 0.28
5,ATTCAATAAACGTATTGTACAAAAGAACGATATATT [XGTACX_site2533],8.87 ± 0.53
6,TGAGAATAAAAAAAAGGGATTATTAGATTTCTCCTT [TGCATGCA_negctrl_site326],7.99 ± 0.39
7,ATCATAACTTGATACGCACACGTTATATAAATAAAA [CACACA_site4955],8.52 ± 0.47
8,TTATGTTGCGAGTTCTTAAGATATAAAAAATTCTTC [GTGCAC_negctrl_site45],8.39 ± 0.46
9,AAAAAAATAAGGTGCACACAAAAAAAAAAAAAAAAA [CACACA_site812],8.64 ± 0.92
10,AAGACAAATTGTGACACACACAAAAAAAAAAAAAAA [CACACA_site3727],8.28 ± 0.54
11,GATTCATTTCGTAATACACACAACAAATATTTCAAA [CACACA_site1772],8.59 ± 0.41
12,AATGTAAATAAGTGTACACATATATAATACATACAT [CACACA_site4938],8.82 ± 0.33
13,TACCTTATATTATATACACACATATAATATAATATA [CACACA_site1328],8.36 ± 0.25
14,GTCTCCTTTATTTTTGGTACAGATAAGATAAAAGGA [XGTACX_site1591],8.5 ± 0.34
15,TATAACATTATTTTGTGTACACATTCGGTTATATTA [XGTACX_site6310],8.96 ± 0.3
16,AATCAAAATATATCTACACACATTTAAGTAACCCAT [CACACA_site5846],8.57 ± 0.62
17,ATTATCAAAAAAAAAAAAAAAAAAAAAAAAAAAAAA [CACACA_negctrl_site1118],7.93 ± 0.4
18,GTGTTCATATATAGCCGTACATATGTCTTATGAACG [XGTACX_site5647],8.77 ± 0.34
19,ATATAGATCTATAATACACACTTATGAAATGTCTAA [CACACA_site6946],8.52 ± 0.49
20,TTGTTTCCGATGAAAGAAAGGAAATTATAATATATC [GTGCAC_negctrl_site516],8.57 ± 0.47
21,TAAAATAATATTTATGTGCACATATAATTATTAATT,8.58 ± 0.028
22,AGAAAAAACAAAAGAGAAATGAAAAAAAAAAAAAAA [XGTACX_negctrl_site482],8.29 ± 0.47
